Results from PubChem BioAssay (NCI).
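Cultured in 96-well plates, cells were exposed to test compound for 48 hours across five concentrations. TGI marks complete inhibition of growth.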 A number of entries come with more than one value. They are shown here; other results are not. There may be further records. For part of these data: A record mostly stands for its own series of concentrations, which the source does not state; some values may only mark the edge of a range. For part of these data: The values listed for one entry are repeats in other runs, samples, wells, individuals or studies. What stands in brackets tells the records apart. Letters hold for one entry only.

Key:
Assay in all cases: growth of human tumour cells (NCI), 48 h
[1] = system: M14 melanoma
[2] = system: NCI-H460 lung
[3] = system: U251 CNS
[4] = system: HL-60(TB) leukemia
[5] = system: RPMI-8226 leukemia
[6] = system: SW-620 colon

SMILES | TGI [1] | TGI [2] | TGI [3] | TGI [4] | TGI [5] | TGI [6]
Cc1cc(C2CCCCC2)n(O)c(=O)c1 | 45.6 µM [sample A] and 4.33 µM [sample B] | > 100 µM [sample A] and 3.77 µM [sample B] | 8.04 µM [sample A] and > 100 µM [sample B] |  |  | 
CN(CCCNc1ccc2ncn3c4ccccc4c(=O)c1c23)CCCN1C(=O)c2cccc3cc([N+](=O)[O-])cc(c23)C1=O |  |  |  | 281 nM and > 100 µM | 359 nM and > 100 µM | 108 nM and > 100 µM
